Measured values: patent US6660767B2, “Coumarin compounds as microtubule stabilizing agents and therapeutic uses thereof” (The Regents of the University of California, priority 2001, dated 2003)

System: microtubule plus ends
Assay: Steady-state dynamic instability of individual microtubules by DIC video microscopy
Type: biochemical, bovine
Description: Analysis of dynamic instability behavior of individual microtubules at steady state was conducted with real-time DIC video microscopy as described by Walker et al. (1988) J. Cell Biol. 107:1437-1448 and Panda et al. (1995) Biochem 34:9921-9929, both of which are herein incorporated by reference. A Hamamatsu C2400 Newvicon video camera was used to capture the images of microtubules which were enhanced with a Hamamatsu DVS3000 digital image processor. Analysis of length changes was performed using a video analysis software program designed by N. Gliksman at the University of North Carolina.
Microtubules were grown at the ends of sea urchin flagellar axonemal fragments (seeds) to distinguish the plus and minus ends. The microtubules were allowed to achieve polymer-mass steady state which took less than about 30 minutes, and analysis of the steady-state dynamics was carried out for about 30 minutes to about 45 minutes without deterioration of the microtubules or any detectable changes in dynamics. The individual dynamic instability parameters were analyzed quantitatively. These included the rates of growing and shortening, the lengths of time microtubules grow and shorten, the mean lengths of each growing or shortening event, the transition frequencies from the growing or attenuated state to shortening or from shortening to the growing or attenuated or paused state, the percentage of total time the microtubules spend growing, shortening, or in the attenuated state, and the overall dynamicity, the combined total observable growing and shortening per unit time. See Kowalski, R. J. et al. (1993) 26(4):282-290, which is herein incorporated by reference.
Tubulin pellets were thawed and centrifuged at 4° C. to remove any aggregated or denatured tubulin. The purified tubulin was mixed with axoneme seeds and polymerized in PMME buffer (87 mM PIPES, 36 mM MES, 1.4 mM MgCl2, 1 mM EGTA, pH 6.8) comprising 1 mM GTP in the presence or absence of coumarin compounds. […].
After 35 minutes of incubation, samples of microtubule suspensions (2.5 μl and 2.0 μl) were prepared for video microscopy, and the dynamics of individual microtubules were recorded at 37° C. as described previously (Panda et al. (1995) Biochem. 34:9921-9929, which is herein incorporated by reference).
The microtubule was determined to be in a growing phase if the microtubule increased in length by >0.2 μM at a rate >0.15 μm/min and in a shortening phase if the microtubule shortened in length by >0.2 μM at a rate >0.3 μm/min. Length changes equal to or less than 0.2 μm over the duration of six data points were considered as attenuation phases. The same tubulin preparation for all experiments was used and for preliminary experiments, an average of about 10 to about 15 microtubules was measured for each experimental condition, and for the results provided in Table 1, about 20 to about 30 microtubules were analyzed for each experimental condition.
The catastrophe frequency (transition from the growing or attenuated state to shortening) was calculated by dividing the number of catastrophes by the sum of the total time spent in the growing plus attenuated states for all microtubules for a particular condition. The rescue frequency (transition from shortening to growing or attenuation, excluding new growth from a seed) was calculated by dividing the total number of rescue events by the total time spent shortening for all microtubules for a particular condition. Control microtubules alternated between phases of growing and shortening, but also spent a small percentage of time in an attenuated state.

[1] = 1 μM dicoumarol, versus control
[2] = previous experiments (second set), concentration not given
[3] = previous experiments, 0.1 μM dicoumarol

## O=c1oc2ccccc2c(O)c1Cc1c(O)c2ccccc2oc1=O [dicoumarol]
0.1 μM dicoumarol
  decrease of frequency of catastrophe: about 65%
  increase of overall percentage of time in the paused (attenuated) state: about 64%
  reduction of dynamicity: about 57%
0.1 μM dicoumarol (text), listed as Dicoumarol
  frequency of catastrophe: 0.22 events/min
1 μM dicoumarol
  lengths of a shortening excursion: about 1.4 μm
  mean shortening rate: about 7.8 μm per minute
[1]
  reduction of lengths of a shortening excursion: about 40%
  reduction of mean shortening rate: about 58%
dicoumarol
  rescue frequency: did not significantly alter
  total time spent growing: no significant effect
[2]
  decrease of frequency of catastrophe: about 72%
  decrease of rescue frequency: about 27%
Previous experiments (second set), concentration not given, control about 33.8%
  overall percentage of time in the paused (attenuated) state: about 47.24%
[3]
  decrease of frequency of catastrophe: about 50%
  increase of overall percentage of time in the attenuated state: about 64%
Previous results
  lengths of a shortening excursion: about 1.6 μM
  mean shortening rate: about 5.2 μm per minute
  reduction of lengths of a shortening excursion: about 30%
  reduction of mean shortening rate: about 72%
Various dicoumarol concentrations
  average rate or lengths of growth: no significant change
